Laboratory results: the supplement of paper PMC6531468
The other results are listed elsewhere or left out. Values come from read counts of a selection and are noisy. Each score is taken over the longer molecules that contain the sequence shown.

These sequences were tested against IMP3 full-length (UniProt O00425) (assay: 6-mer SELEX enrichment z-score vs GST control; IMP3 is the RNA-binding protein IGF2BP3; higher = more enriched by binding). Conditions: construct: FL IMP3 (1-579); SELEX round: R4.
Experimental: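 SELEX-seq with GST-tagged full-length IMP3 and an N40 RNA pool, round 4. Each 6-mer is scored as an enrichment z-score of sequence tags containing it, normalised to the matching GST SELEX round. RNA written as DNA (T = U).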

Sequence of UniProt O00425 (O00425 whole entry): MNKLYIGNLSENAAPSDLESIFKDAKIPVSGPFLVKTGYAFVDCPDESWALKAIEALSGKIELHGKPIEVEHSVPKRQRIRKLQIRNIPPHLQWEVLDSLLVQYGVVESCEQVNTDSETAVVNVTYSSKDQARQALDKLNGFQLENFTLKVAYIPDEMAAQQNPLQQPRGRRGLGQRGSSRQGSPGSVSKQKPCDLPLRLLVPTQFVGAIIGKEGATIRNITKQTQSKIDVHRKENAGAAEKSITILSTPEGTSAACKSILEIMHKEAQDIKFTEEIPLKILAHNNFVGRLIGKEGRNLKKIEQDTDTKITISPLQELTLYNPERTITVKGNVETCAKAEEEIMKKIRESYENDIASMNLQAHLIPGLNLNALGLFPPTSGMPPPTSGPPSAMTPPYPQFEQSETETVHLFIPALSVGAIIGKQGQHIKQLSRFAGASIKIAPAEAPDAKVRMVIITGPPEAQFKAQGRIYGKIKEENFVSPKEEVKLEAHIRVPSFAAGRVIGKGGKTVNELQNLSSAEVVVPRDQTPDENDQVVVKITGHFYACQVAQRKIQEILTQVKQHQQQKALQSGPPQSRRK

Sequence | 6-mer SELEX enrichment z-score
TAGCAC | 0.469
CAGATC | 0.731
CAAAGT | -0.395
CTAGCA | 0.17
ACCTGA | -1.97
CGGTGG | 0.407
CATATC | 1.41
CACGGG | 0.802
GATGAT | -0.045
AAGTTG | -0.433
GGCGGT | 0.649
TTGGGT | 0.224
CTTCCG | -0.167
CTGCGT | -0.859
ATTCTC | 0.276
CTCGGC | 1.45
TGATAT | 0.045
AGAGTC | 0.405
GAGCAA | -0.159
TTGCGC | -0.204

Sequence | 6-mer SELEX enrichment z-score
TGTGTA | -0.419
TCACGT | 0.341
TCCCAG | -0.587
GTCTTT | 0.217
GCCGAT | -0.086
CTGCTT | 0.093
GGCATG | 1.61
CCTTCC | -0.703
CGACTG | -0.722
GAATAT | -0.152
TAGCGC | -0.158
AAGCCG | -0.372
AACTTC | -0.205
ACGGGC | 0.249
AATCTC | -0.268
TCGCAG | 0.297
TGTACG | -0.153
GTCTGG | 0.295
GCCGCG | 0.358
TGCAGT | 0.342
